Experimental findings from the antibiotic and cytotoxicity screens of Wong et al. (2023) are described below.

The other results are listed elsewhere or left out.

One test concerns HSkMC. In words: cytotoxicity call (relative viability < 0.9). The conditions noted are these: 10 µM.
In another test the test system is HepG2. Nature of the test: cytotoxicity call (relative viability < 0.9). The conditions noted are these: 10 µM.
The test system of the next test is S. aureus RN4220. Nature of the test: growth inhibition call (relative growth <= 0.2). The conditions noted are these: 50 µM.

Consider `O=C(C[C@@H]1CC[C@@H](NC(=O)Nc2ccc3c(c2)OCO3)[C@@H](CO)O1)NCCCN1CCOCC1`, for which the cytotoxicity call in the test with HSkMC and with HepG2 was “inactive” in each case. The growth inhibition call in the test with S. aureus RN4220 was “inactive”.

Consider `C[C@@H]1CN([C@H](C)CO)C(=O)c2cc(NC(=O)CCC(F)(F)F)ccc2O[C@H]1CN(C)C(=O)Nc1cccc2ccccc12`, for which the cytotoxicity call with HSkMC and with HepG2 was “inactive” throughout. For the same compound, the growth inhibition call in the test with S. aureus RN4220 was “inactive”.

Turning to `C[C@@H]1CN([C@H](C)CO)C(=O)c2cc(NS(=O)(=O)c3ccc(F)cc3)ccc2O[C@@H](C)CCCCO[C@@H]1CN(C)C(=O)NC1CCCCC1`, the cytotoxicity call in the test on HSkMC and with HepG2 was “inactive” in each case. Besides, the growth inhibition call with S. aureus RN4220 was “inactive”.

In the case of `C[C@@H]1CCCCO[C@@H](CN(C)C(=O)Nc2cccc3ccccc23)[C@@H](C)CN([C@H](C)CO)C(=O)c2cc(N(C)C)ccc2O1`, the cytotoxicity call with HSkMC and with HepG2 was “inactive” in each case. In the test on S. aureus RN4220, the growth inhibition call is “inactive”.

In the case of `N[C@@H](CC(=O)N1CCn2c(nnc2C(F)(F)F)C1)Cc1[nH]nc2c(F)c(F)ccc12`, the cytotoxicity call in the test with HSkMC and in the test with HepG2 was “inactive” throughout. Further, the growth inhibition call in the test with S. aureus RN4220 was “inactive”.

With `Cc1noc(C)c1NC(=O)N[C@H]1CC[C@H](CC(=O)N2CCN(C)CC2)O[C@@H]1CO`, the cytotoxicity call with HSkMC and in the test on HepG2 was “inactive” each time. Also, the growth inhibition call in the test with S. aureus RN4220 was “inactive”.

As for `C[C@@H]1COC(=O)[C@H](Cc2ccc(F)cc2)CC=CC[C@@H](CC(=O)N[C@@H](CO)Cc2ccccc2)C(=O)N1`, the cytotoxicity call in the test with HSkMC and in the test with HepG2 was “inactive” throughout. Besides, in the test with S. aureus RN4220, the growth inhibition call is “inactive”.

For the compound `Cc1noc(C)c1S(=O)(=O)N(C)C[C@@H]1Oc2ccc(N(C)C)cc2CC(=O)N([C@@H](C)CO)C[C@@H]1C`, the cytotoxicity call with HSkMC and in the test with HepG2 was “inactive” each time. Besides, the growth inhibition call in the test with S. aureus RN4220 is “inactive”.

Take `Cc1ccc(S(=O)(=O)Nc2cccc3c2O[C@@H](CN(C)C(=O)Nc2cccc4ccccc24)[C@@H](C)CN([C@H](C)CO)C3=O)cc1`: the cytotoxicity call in the test with HSkMC and with HepG2 was “inactive” in each case. Moreover, in the test on S. aureus RN4220, the growth inhibition call was “inactive”.

Take `CC(=O)N[C@H](C)c1cn(C)nc1C`: the cytotoxicity call in the test with HSkMC and with HepG2 was “inactive” each time. Further, the growth inhibition call with S. aureus RN4220 was “inactive”.

As to `NCc1ccc(-n2cccc2)cc1`, the cytotoxicity call with HSkMC and in the test on HepG2 was “inactive” in each case. The growth inhibition call with S. aureus RN4220 was “inactive”.

With `O=C(O)C[C@H]1Oc2ccccc2NC1=O`, the cytotoxicity call in the test on HSkMC and with HepG2 was “inactive” each time. The growth inhibition call in the test with S. aureus RN4220 is “inactive”.

Turning to `COc1ccc([Si](C)(C)[C@H]2[C@H](CCO)O[C@@]3(C(=O)N(Cc4cccc(N5CCCCC5=O)c4)c4ccccc43)[C@@H]2C)cc1`, the cytotoxicity call in the test on HSkMC and in the test with HepG2 was “inactive” throughout. The growth inhibition call with S. aureus RN4220 was “inactive”.

Take `C[C@@H]1CN([C@H](C)CO)C(=O)c2cc(NC(=O)CCCN(C)C)ccc2O[C@H]1CN(C)Cc1ccc(C(=O)O)cc1`: the cytotoxicity call with HSkMC and with HepG2 was “inactive” throughout. Besides, the growth inhibition call with S. aureus RN4220 was “inactive”.

Consider `CCCC#Cc1ccc2c(c1)O[C@@H](CN(C)C(=O)c1cnccn1)[C@@H](C)CN([C@@H](C)CO)S2(=O)=O`, for which the cytotoxicity call in the test on HSkMC and with HepG2 was “inactive” each time. For the same compound, the growth inhibition call with S. aureus RN4220 was “inactive”.

As to `COCC#Cc1ccc2c(c1)O[C@H](CN(C)C(=O)C1CCOCC1)[C@H](C)CN([C@@H](C)CO)S2(=O)=O`, the cytotoxicity call in the test on HSkMC and in the test on HepG2 was “inactive” in each case. Also, the growth inhibition call in the test with S. aureus RN4220 is “inactive”.

Take `CCOc1ccc2c(c1)-c1c(ssc1=S)C(C)(C)N2C`: the cytotoxicity call in the test with HSkMC and in the test on HepG2 was “inactive” each time. Also, the growth inhibition call in the test with S. aureus RN4220 is “inactive”.

Consider `O=c1c(O)c(-c2ccc(O)cc2O)oc2cc(O)cc(O)c12`, for which the cytotoxicity call with HSkMC and in the test with HepG2 was “inactive” each time. For the same compound, the growth inhibition call in the test on S. aureus RN4220 is “inactive”.

Take `C[C@@H]1CN([C@H](C)CO)C(=O)c2ccccc2-c2ccccc2CO[C@@H]1CN(C)S(=O)(=O)c1cn(C)cn1`: the cytotoxicity call with HSkMC and in the test on HepG2 was “inactive” in each case. For the same compound, the growth inhibition call in the test with S. aureus RN4220 was “inactive”.

Turning to `C[C@H]1CN([C@@H](C)CO)C(=O)c2cc(NS(=O)(=O)c3cccs3)ccc2O[C@H]1CN(C)CC1CC1`, the cytotoxicity call with HSkMC and in the test on HepG2 was “inactive” throughout. Moreover, the growth inhibition call in the test on S. aureus RN4220 is “inactive”.

As to `COc1ccc(CN(C)C[C@@H]2OCCCC[C@H](C)Oc3ccc(NC(=O)Nc4ccc(C(F)(F)F)cc4)cc3C(=O)N([C@@H](C)CO)C[C@H]2C)cc1`, the cytotoxicity call in the test with HSkMC and with HepG2 was “active” each time. Besides, in the test on S. aureus RN4220, the growth inhibition call was “inactive”.

As to `O=C(CN1CCOCC1)N[C@H]1CC[C@@H](CCNC(=O)C2CCC2)O[C@@H]1CO`, the cytotoxicity call with HSkMC and with HepG2 was “inactive” in each case. The growth inhibition call in the test with S. aureus RN4220 was “inactive”.

Take `O=S(=O)(C1CCCCC1)C1CNC1`: the cytotoxicity call in the test on HSkMC and in the test on HepG2 was “inactive” each time. The growth inhibition call in the test on S. aureus RN4220 was “inactive”.

As for `CCOC(=O)c1cn[nH]c1N`, the cytotoxicity call with HSkMC and in the test with HepG2 was “inactive” in each case. The growth inhibition call with S. aureus RN4220 was “inactive”.

Consider `C[C@@H]1CN([C@H](C)CO)C(=O)c2cccc(NC(=O)c3ccc(-c4nccs4)cc3)c2O[C@@H]1CN(C)C(=O)Nc1cccc2ccccc12`, for which the cytotoxicity call in the test on HSkMC (human skeletal muscle cells) and in the test with HepG2 was “inactive” in each case. Further, in the test on S. aureus RN4220, the growth inhibition call was “inactive”.

For `C[C@@H]1CN([C@H](C)CO)C(=O)c2cc(NC(=O)CCCN(C)C)ccc2O[C@@H](C)CCCCO[C@H]1CN(C)C(=O)Nc1cccc2ccccc12`, the cytotoxicity call with HSkMC and in the test on HepG2 was “inactive” in each case. Moreover, the growth inhibition call in the test with S. aureus RN4220 was “inactive”.

As to `Cc1noc(C)c1NC(=O)N(C)C[C@@H]1Oc2ccc(NS(=O)(=O)c3c(C)noc3C)cc2CC(=O)N([C@@H](C)CO)C[C@H]1C`, the cytotoxicity call in the test with HSkMC and with HepG2 was “inactive” each time. Further, in the test on S. aureus RN4220, the growth inhibition call was “inactive”.

On to `COc1ccc(CN(C)C[C@@H]2OCCCC[C@@H](C)Oc3ccc(NC(=O)Nc4ccccc4)cc3C(=O)N([C@H](C)CO)C[C@H]2C)cc1`, for which the cytotoxicity call in the test with HSkMC and in the test on HepG2 was “inactive” in each case. Moreover, in the test with S. aureus RN4220, the growth inhibition call was “inactive”.

In the case of `COc1ccc(CN(C)C[C@H]2OCCCC[C@H](C)Oc3ccc(NS(=O)(=O)c4ccc(C)cc4)cc3C(=O)N([C@@H](C)CO)C[C@@H]2C)cc1`, the cytotoxicity call with HSkMC and in the test on HepG2 was “inactive” throughout. Further, the growth inhibition call in the test on S. aureus RN4220 was “inactive”.
